The supplement of paper PMC8728848
The list shows a part of the results.

Legend:
Experiment in all cases: glycan array binding signal (z-score within array); higher = stronger binding
Conditions in all cases: glycan notation: IUPAC condensed, linker removed; mutation: N224Q
[1] = target: GlcNAc(b1-4)GlcNAc(b1-4)GlcNAc(b1-4)GlcNAc(b1-4)GlcNAc
In short: (§1)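 The Consortium for Functional Glycomics database supplied 3228 glycan arrays, of which those lacking an available protein sequence were dropped. The binding signal, a within-array Z-score, was averaged across arrays of the same protein sequence and across linkers. Negative scores can be read as non-binding.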

[2] = target: GlcNAc(b1-4)GlcNAc(b1-4)GlcNAc(b1-4)GlcNAc(b1-4)GlcNAc(b1-4)GlcNAc
In short: as §1

[3] = target: GlcNAc(b1-4)[GlcNAc(b1-6)]GalNAc
In short: as §1

[4] = target: GlcNAc(b1-6)Gal(b1-4)GlcNAc
In short: as §1

GlcNAc(b1-6)GalNAc = target: GlcNAc(b1-6)GalNAc
In short: as §1

[5] = target: GlcNAc6S(b1-3)Gal(b1-4)GlcNAc
In short: as §1

Kdn(a2-3)Gal(b1-3)GalNAc = target: Kdn(a2-3)Gal(b1-3)GalNAc
In short: as §1

Kdn(a2-3)Gal(b1-3)GlcNAc = target: Kdn(a2-3)Gal(b1-3)GlcNAc
In short: as §1

Kdn(a2-3)Gal(b1-4)Glc = target: Kdn(a2-3)Gal(b1-4)Glc
In short: as §1

Kdn(a2-3)Gal(b1-4)GlcNAc = target: Kdn(a2-3)Gal(b1-4)GlcNAc
In short: as §1

[6] = target: Kdn(a2-3)Gal(b1-4)[Fuc(a1-3)]GlcNAc
In short: as §1

Kdn(a2-6)Gal(b1-4)GlcNAc = target: Kdn(a2-6)Gal(b1-4)GlcNAc
In short: as §1

[7] = target: Man(a1-2)Man(a1-2)Man(a1-3)Man
In short: as §1

[8] = target: Man(a1-2)Man(a1-2)Man(a1-6)[Man(a1-3)]Man
In short: as §1

Man(a1-2)Man(a1-3)Man = target: Man(a1-2)Man(a1-3)Man
In short: as §1

[9] = target: Man(a1-2)Man(a1-3)[Man(a1-2)Man(a1-6)]Man
In short: as §1

[10] = target: Man(a1-2)Man(a1-3)[Man(a1-2)Man(a1-6)]Man(a1-6)[Man(a1-2)Man(a1-2)Man(a1-3)]Man
In short: as §1

[11] = target: Man(a1-2)Man(a1-3)[Man(a1-2)Man(a1-6)]Man(a1-6)[Man(a1-2)Man(a1-2)Man(a1-3)]Man(b1-4)GlcNAc(b1-4)GlcNAc
In short: as §1

[12] = target: Man(a1-2)Man(a1-3)[Man(a1-6)]Man(a1-6)[Man(a1-2)Man(a1-3)]Man(b1-4)GlcNAc(b1-4)GlcNAc
In short: as §1

[13] = target: Man(a1-2)Man(a1-6)[Man(a1-3)]Man(a1-6)[Man(a1-2)Man(a1-2)Man(a1-3)]Man
In short: as §1

[14] = target: Man(a1-2)Man(a1-6)[Man(a1-3)]Man(a1-6)[Man(a1-2)Man(a1-2)Man(a1-3)]Man(b1-4)GlcNAc(b1-4)GlcNAc
In short: as §1

Man(a1-3)[Man(a1-6)]Man = target: Man(a1-3)[Man(a1-6)]Man
In short: as §1

[15] = target: Man(a1-3)[Man(a1-6)]Man(a1-6)[Man(a1-2)Man(a1-3)]Man(b1-4)GlcNAc(b1-4)GlcNAc
In short: as §1

[16] = target: Man(a1-3)[Man(a1-6)]Man(a1-6)[Man(a1-3)]Man
In short: as §1

[17] = target: Man(a1-3)[Man(a1-6)]Man(a1-6)[Man(a1-3)]Man(b1-4)GlcNAc(b1-4)GlcNAc
In short: as §1

[18] = target: Man(a1-3)[Man(a1-6)]Man(b1-4)GlcNAc(b1-4)GlcNAc
In short: as §1

[19] = target: Man(a1-3)[Man(a1-6)]Man(b1-4)GlcNAc(b1-4)[Fuc(a1-6)]GlcNAc
In short: as §1

Man(a1-6)Man = target: Man(a1-6)Man
In short: as §1

Man(b1-4)GlcNAc = target: Man(b1-4)GlcNAc
In short: as §1

MurNAc(b1-4)GlcNAc = target: MurNAc(b1-4)GlcNAc
In short: as §1

Neu5Ac(a2-3)Gal = target: Neu5Ac(a2-3)Gal
In short: as §1

[20] = target: Neu5Ac(a2-3)Gal(b1-3)GalNAc
In short: as §1

[21] = target: Neu5Ac(a2-3)Gal(b1-3)GalNAc(b1-3)Gal(a1-4)Gal(b1-4)Glc
In short: as §1

[22] = target: Neu5Ac(a2-3)Gal(b1-3)GalNAc(b1-4)Gal(b1-4)Glc
In short: as §1

[23] = target: Neu5Ac(a2-3)Gal(b1-3)GalNAc(b1-4)[Neu5Ac(a2-3)]Gal(b1-4)Glc
In short: as §1

[24] = target: Neu5Ac(a2-3)Gal(b1-3)GalNAc(b1-4)[Neu5Ac(a2-8)Neu5Ac(a2-3)]Gal(b1-4)Glc
In short: as §1

[25] = target: Neu5Ac(a2-3)Gal(b1-3)GalNAc6S
In short: as §1

B1: AAL (Aleuria aurantia) (protein)
chain: MPTEFLYTSKIAAISWAATGGRQQRVYFQDLNGKIREAQRGGDNPWTGGSSQNVIGEAKLFSPLAAVTWKSAQGIQIRVYCVNKDNILSEFVYDGSKWITGQLGSVGVKVGSNSKLAALQWGGSESAPPNIRVYYQKSNGSGSSIHEYVWSGKWTAGASFGSTVPGTGIGATAIGPGRLRIYYQATDNKIREHCWDSNSWYVGGFSASASAGVSIAAISWGSTPQIRVYWQKGREELYEAAYGGSWNTPGQIKDASRPTPSLPDTFIAANSSGNIDISVFFQASGVSLQQWQWISGKGWSIGAVVPTGTPAGW
glycan array binding signal (z-score) [1]: -0.314
glycan array binding signal (z-score) [2]: -0.321
glycan array binding signal (z-score) [3]: -0.323
glycan array binding signal (z-score) [4]: -0.311
glycan array binding signal (z-score) (GlcNAc(b1-6)GalNAc): -0.325
glycan array binding signal (z-score) [5]: -0.313
glycan array binding signal (z-score) (Kdn(a2-3)Gal(b1-3)GalNAc): -0.294
glycan array binding signal (z-score) (Kdn(a2-3)Gal(b1-3)GlcNAc): -0.318
glycan array binding signal (z-score) (Kdn(a2-3)Gal(b1-4)Glc): -0.309
glycan array binding signal (z-score) (Kdn(a2-3)Gal(b1-4)GlcNAc): -0.32
glycan array binding signal (z-score) [6]: -0.301
glycan array binding signal (z-score) (Kdn(a2-6)Gal(b1-4)GlcNAc): -0.312
glycan array binding signal (z-score) [7]: -0.317
glycan array binding signal (z-score) [8]: -0.312
glycan array binding signal (z-score) (Man(a1-2)Man(a1-3)Man): -0.318
glycan array binding signal (z-score) [9]: -0.315
glycan array binding signal (z-score) [10]: -0.312
glycan array binding signal (z-score) [11]: -0.312
glycan array binding signal (z-score) [12]: -0.309
glycan array binding signal (z-score) [13]: -0.315
glycan array binding signal (z-score) [14]: -0.318
glycan array binding signal (z-score) (Man(a1-3)[Man(a1-6)]Man): -0.312
glycan array binding signal (z-score) [15]: -0.3
glycan array binding signal (z-score) [16]: -0.283
glycan array binding signal (z-score) [17]: -0.312
glycan array binding signal (z-score) [18]: -0.311
glycan array binding signal (z-score) [19]: 1.03
glycan array binding signal (z-score) (Man(a1-6)Man): -0.316
glycan array binding signal (z-score) (Man(b1-4)GlcNAc): -0.313
glycan array binding signal (z-score) (MurNAc(b1-4)GlcNAc): -0.327
glycan array binding signal (z-score) (Neu5Ac(a2-3)Gal): -0.327
glycan array binding signal (z-score) [20]: -0.306
glycan array binding signal (z-score) [21]: -0.313
glycan array binding signal (z-score) [22]: -0.304
glycan array binding signal (z-score) [23]: -0.312
glycan array binding signal (z-score) [24]: -0.315
glycan array binding signal (z-score) [25]: -0.325
